Among all 220,000 compounds or so, about 5,700 (2.6%) were called active. The shares of active, inactive and inconclusive entries below differ from those in the screen. The call rests on the fitted dose curve; in most records, active means well fitted inhibition curve with a large enough effect; inconclusive means small, poorly fitted or top-dose-only effect; inactive means no such curve, though single readings can be large or run the other way. Where the call is inconclusive, the potency comes from a doubtful curve fit.
These molecules were tested against Lysine-specific demethylase 5B (Homo sapiens) (UniProt Q9UGL1) (assay: Primary screen for KDM5B Histone Demethylases FDH-coupled qHTS). Conditions: FDH-coupled NADH fluorescence (FDH is formaldehyde dehydrogenase); activity change, negative = inhibition: at 57.7 µM (top of the series) unless noted.
How it was run: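 Coupled FDH/NAD⁺ fluorescence readout. KDM5BΔAP 200 nM final; compound titration, 10 min RT preincubation; substrate mix 12.5 µM H3K4me3, 25 µM 2-OG, 50 µM Fe(II), 100 µM ascorbate, 0.25 mM NAD⁺, 0.25 U/mL FDH; ΔRFU over 30 min.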
Further: nearly all actives have a fitted effect of over 70% in size.
Potency means the concentration at half of the fitted maximal effect; tags describe the fitted curve by direction and shape.
Wherever activity change, negative = inhibition is given: 0% is about no effect.

Chain of UniProt Q9UGL1 (Q9UGL1 whole entry, looked up): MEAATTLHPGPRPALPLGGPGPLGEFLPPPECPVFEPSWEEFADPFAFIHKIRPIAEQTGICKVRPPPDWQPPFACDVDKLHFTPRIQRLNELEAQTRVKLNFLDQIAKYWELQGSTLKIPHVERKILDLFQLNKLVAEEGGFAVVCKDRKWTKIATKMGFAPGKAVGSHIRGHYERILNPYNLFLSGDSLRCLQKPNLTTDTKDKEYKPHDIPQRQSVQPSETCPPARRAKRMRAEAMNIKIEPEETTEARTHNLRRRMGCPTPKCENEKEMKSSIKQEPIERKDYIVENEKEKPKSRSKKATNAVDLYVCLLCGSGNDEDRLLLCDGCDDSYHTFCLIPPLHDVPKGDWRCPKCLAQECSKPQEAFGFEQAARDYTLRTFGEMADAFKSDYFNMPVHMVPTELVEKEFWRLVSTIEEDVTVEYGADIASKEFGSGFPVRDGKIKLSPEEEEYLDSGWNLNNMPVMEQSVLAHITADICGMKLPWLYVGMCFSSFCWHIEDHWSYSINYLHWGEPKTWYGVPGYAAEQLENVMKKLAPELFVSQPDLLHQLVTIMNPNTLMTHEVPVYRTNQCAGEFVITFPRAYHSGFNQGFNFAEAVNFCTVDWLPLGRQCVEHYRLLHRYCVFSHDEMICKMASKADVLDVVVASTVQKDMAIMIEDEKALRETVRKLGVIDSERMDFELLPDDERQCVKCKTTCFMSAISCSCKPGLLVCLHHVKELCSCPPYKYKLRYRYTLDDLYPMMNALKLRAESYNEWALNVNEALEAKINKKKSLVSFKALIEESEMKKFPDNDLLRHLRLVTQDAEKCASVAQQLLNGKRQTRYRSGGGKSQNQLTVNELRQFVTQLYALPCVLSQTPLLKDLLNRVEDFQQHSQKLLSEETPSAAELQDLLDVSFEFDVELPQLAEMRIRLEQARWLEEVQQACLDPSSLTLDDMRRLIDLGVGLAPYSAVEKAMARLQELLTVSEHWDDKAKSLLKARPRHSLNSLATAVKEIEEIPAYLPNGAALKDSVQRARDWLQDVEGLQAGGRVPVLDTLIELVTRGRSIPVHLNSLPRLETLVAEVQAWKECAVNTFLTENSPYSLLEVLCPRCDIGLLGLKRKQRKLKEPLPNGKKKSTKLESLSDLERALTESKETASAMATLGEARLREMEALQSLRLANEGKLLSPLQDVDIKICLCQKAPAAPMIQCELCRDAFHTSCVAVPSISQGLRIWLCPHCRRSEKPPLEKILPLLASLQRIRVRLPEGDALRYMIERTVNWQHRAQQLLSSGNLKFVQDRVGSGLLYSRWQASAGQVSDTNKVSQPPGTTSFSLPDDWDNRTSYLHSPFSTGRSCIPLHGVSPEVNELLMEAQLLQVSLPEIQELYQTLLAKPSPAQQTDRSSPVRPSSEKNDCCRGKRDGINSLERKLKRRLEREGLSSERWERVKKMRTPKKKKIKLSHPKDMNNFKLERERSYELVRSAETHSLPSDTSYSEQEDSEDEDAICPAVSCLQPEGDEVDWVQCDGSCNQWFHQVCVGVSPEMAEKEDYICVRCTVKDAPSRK

Q: With Cc1nn(-c2ccccc2)c(C)c1CC(=O)NC1CCCc2c1[nH]c1ccccc21 (stereo unspecified) as the molecule, how does the Potency read?
A: inconclusive: 10 µM [inhibitor, partial curve]

Q: For COc1ccc(-c2nc3c(c(=O)[nH]2)CCN(C(=O)c2ccccc2OC(F)(F)F)C3)cc1, which “activity change, negative = inhibition” value is on record?
A: inactive: -3.43%

Q: How did the Potency turn out when Cc1ccccc1N(C)C(=O)c1noc2c1COc1ccccc1-2 was run?
A: inconclusive: 25.1 µM [inhibitor, partial curve, poor fit]

Q: Which Potency does the source give for Cc1cccc(C(C)C)c1NC(=O)C(C)OC(=O)C1=CN2CCS(=O)(=O)N=C2C=C1 (stereo unspecified) here?
A: inconclusive: 28.2 µM [inhibitor, partial curve, poor fit]

Q: Which “activity change, negative = inhibition” value does the source give for Cc1cc2ccccc2n1CC(=O)NCCCCCC(=O)O here?
A: inactive: -4.92%

Q: Cc1ccc2nc(NC(=O)CCc3ncc(-c4ccccc4Cl)o3)sc2c1 was tested. Which “activity change, negative = inhibition” value did it give?
A: inactive: 16.4%

Q: Which Potency does the source give for C#CCn1c(/C=C/c2ccc(Cl)cc2)nc2ccccc21 here?
A: inconclusive: 28.2 µM [inhibitor, partial curve, poor fit]

Q: For CCCC(=O)N1CCC(O)(c2ccccc2)[C@H](N2CCCC2)C1 (stereo partly specified), which Potency is on record?
A: active: 10 µM

Q: For CC1=C(C(=O)Nc2ccccc2)C(c2cccc(O)c2)n2nc(-c3ccccc3Cl)nc2N1 (stereo unspecified), which Potency is on record?
A: inconclusive: 14.1 µM [inhibitor, partial curve, poor fit]

Q: How did the Potency turn out when Cc1onc(-c2ccccc2Cl)c1C(=O)Oc1ccc(Br)cc1 was run?
A: inconclusive: 3.55 µM [inhibitor, partial curve, poor fit]

Q: For CC1CCN(S(=O)(=O)c2ccc(-c3nc(C#N)c(NCCN4CCOCC4)o3)cc2)CC1, which Potency is on record?
A: inconclusive: 35.5 µM [inhibitor, single point]

Q: CCOc1ccc(-c2cc(C(=O)N/N=C/c3cccnc3)c3ccccc3n2)cc1 was tested. Which Potency did it give?
A: inconclusive: 31.6 µM [inhibitor, partial curve, poor fit]

Q: For CC1(C)CC(=O)C2=C(C1)OC(N)=C(C#N)C2c1c2ccccc2cc2ccccc12 (stereo unspecified), which Potency is on record?
A: inconclusive: 39.8 µM [inhibitor, single point]

Q: For COc1ccc(CN2CCC3(CC(c4cccc(C(F)(F)F)c4)=NO3)C2)cc1 (stereo unspecified), which Potency is on record?
A: inconclusive: 56.2 µM [inhibitor, partial curve]

Q: For Cc1ccc(-c2cc(-c3ccccc3)nc(N)c2C#N)o1, which Potency is on record?
A: inconclusive: 31.6 µM [inhibitor, partial curve, poor fit]

Q: Which Potency does the source give for COc1ccc(C(=O)NCC(c2cccs2)S(=O)(=O)c2ccc(F)c(C)c2)cc1 (stereo unspecified) here?
A: inconclusive: 31.6 µM [inhibitor, single point]

Q: Cc1ccc(NC(=O)c2ccccc2C(F)(F)F)c(F)c1 was tested. Which “activity change, negative = inhibition” value did it give?
A: inactive: 6.15%

Q: How did the “activity change, negative = inhibition” value turn out when Cc1nn(-c2ccccc2)c(C)c1CN(C)C(=O)CNC(=O)c1ccc(Cl)cc1 was run?
A: inactive: -4.33%

Q: How did the Potency turn out when CCN1c2cc(C(=O)Nc3ccc(OC)cc3)ccc2C(=O)N2CCCCC21 (stereo unspecified) was run?
A: inconclusive: 22.4 µM [inhibitor, partial curve, poor fit]

Q: How did the Potency turn out when CCOC(=O)c1sc(Nc2cccc(C)c2)nc1C(F)(F)F was run?
A: inconclusive: 35.5 µM [inhibitor, single point]

Q: O=C(Nc1cccc(C(F)(F)F)c1)c1nc2c(o1)CCN(Cc1cccc(F)c1)CC2 was tested. Which Potency did it give?
A: active: 28.2 µM

Q: O=C(c1ccccc1F)N1CCN(C(=O)N2CC3CC(C2)[C@H]2CCCC(=O)N2C3)CC1 (stereo partly specified) was tested. Which “activity change, negative = inhibition” value did it give?
A: inactive: 12.4%

Q: With O=C1CCN(Cc2ccncc2)CCCC(C(=O)NCCCN2CCCC2=O)CCN1 (stereo unspecified) as the molecule, how does the Potency read?
A: inconclusive: 22.4 µM [inhibitor, partial curve]

Q: Which Potency does the source give for C[S+](=O)([O-])CCn1ncc2cc(OCC3CCN(c4ncccn4)CC3)ccc21 here?
A: active: 35.5 µM

Q: CC(=O)c1cc2c(cc1NC(=O)CSc1nnc(C3CC3)n1C)OCO2 was tested. Which Potency did it give?
A: inconclusive: 28.2 µM [inhibitor, single point]

Q: With Clc1cccc(N2CCN(c3ncnc4c3nc3n4CCCC3)CC2)c1 as the molecule, how does the Potency read?
A: inconclusive: 17.8 µM [inhibitor, partial curve, poor fit]

Q: How did the Potency turn out when O=C(/C=C/c1ccccc1)Oc1cccc2cccnc12 was run?
A: inconclusive: 28.2 µM [inhibitor, partial curve, poor fit]

Q: O=C(C[C@H]1NC(=O)c2ccccc2NC1=O)Nc1ccc(N2CCOCC2)cc1 was tested. Which “activity change, negative = inhibition” value did it give?
A: inactive: -22.6%

Q: Which “activity change, negative = inhibition” value does the source give for Cc1nn(C)cc1C(=O)N1C[C@@H](CO)[C@H](c2ccncc2)C1 here?
A: inactive: 8.05%

Q: How did the “activity change, negative = inhibition” value turn out when COc1ccc(C(=O)N2CCc3ccc(C(=O)NCc4cccnc4)cc32)cc1 was run?
A: inactive: 12.3%

Q: For COc1cccc(S(=O)(=O)N2CCC3(CC2)C(OC)CN3c2cccc(F)c2)c1 (stereo unspecified), which Potency is on record?
A: inconclusive: 20 µM [inhibitor, partial curve, poor fit]

Q: COC(=O)C1=CN(c2cccc(C(F)(F)F)c2)C=C(C(=O)OC)C1c1ccc(O)c(OC)c1 was tested. Which Potency did it give?
A: inconclusive: 39.8 µM [inhibitor, single point]

Q: With COc1ccc2cc(-c3csc(Nc4ccc(F)cc4)n3)c(=O)oc2c1 as the molecule, how does the Potency read?
A: inconclusive: 25.1 µM [inhibitor, partial curve, poor fit]

Q: How did the “activity change, negative = inhibition” value turn out when N#Cc1ccccc1COC(=O)c1ccc(Cl)cc1 was run?
A: inactive: 7.74%

Q: For O=C(NCc1ccnc2[nH]ccc12)c1ccccc1F, which Potency is on record?
A: inconclusive: 35.5 µM [inhibitor, single point]

Q: CCCn1c(=O)[nH]c(=O)c2c1nc(-c1ccc(CC)cc1)n2CCOC was tested. Which “activity change, negative = inhibition” value did it give?
A: inactive: -22.8%

Q: CN1C(=O)C(CC(=O)NCc2cccs2)Sc2ncccc21 (stereo unspecified) was tested. Which Potency did it give?
A: inconclusive: 15.8 µM [inhibitor, single point]

Q: Which activity change, negative = inhibition does the source give for COc1ccc(CNC(=O)Nc2ccc3c(c2)N(C)C(=O)c2ccccc2S3)cc1OC here?
A: inconclusive: -33.1% [inhibitor]

Q: With COc1cccc(NC(=O)NC[C@H]2O[C@@H](CO)[C@@H](O)[C@H]2N(C)CCN(C)C)c1 as the molecule, how does the Potency read?
A: inconclusive: 15.8 µM [inhibitor, single point]

Q: O=C(CCCN1C(=O)COc2ccc(C(=O)COc3cccc(Cl)c3)cc21)NCC1CC1 was tested. Which “activity change, negative = inhibition” value did it give?
A: inactive: -29.8%

Q: How did the “activity change, negative = inhibition” value turn out when CCCOC(=O)c1ccc(NC(=O)CC(C)(C(=O)O)c2ccccc2)cc1 (stereo unspecified) was run?
A: inactive: 24.8%

Q: With Cc1ccc(C(=O)C(C)C(=O)c2ccc(C)c(C)c2)cc1C as the molecule, how does the “activity change, negative = inhibition” value read?
A: inactive: -2.37%

Q: For CCCN(CC(=O)NC(=O)NC1CCCC1)Cc1ccc(C#N)cc1, which “activity change, negative = inhibition” value is on record?
A: inactive: -1.16%

Q: Which Potency does the source give for Fc1ccc(-c2ccnc3nc(C4CCCO4)nn23)cc1 (stereo unspecified) here?
A: inconclusive: 22.4 µM [inhibitor, partial curve, poor fit]

Q: Which Potency does the source give for Cc1ccc(CNC(=O)c2c(-c3ccccc3Cl)noc2C)o1 here?
A: inconclusive: 28.2 µM [inhibitor, partial curve, poor fit]

Q: CN(CC(=O)NC(C1CC1)C1CC1)c1ccccc1 was tested. Which “activity change, negative = inhibition” value did it give?
A: inactive: 5.32%

Q: With Cc1coc2cc3oc(=O)c(CC(=O)NCc4cccc(Cl)c4)c(C)c3cc12 as the molecule, how does the Potency read?
A: inconclusive: 1 µM [inhibitor, partial curve, poor fit]

Q: Cc1cccc(NC(=O)COc2ccc(-c3nn(C)c(=O)c4ccccc34)cc2)c1 was tested. Which Potency did it give?
A: inconclusive: 15.8 µM [inhibitor, partial curve, poor fit]

Q: For CNC(=O)CCNC(=O)Cn1c(-c2ccccc2)cc2ccccc21, which Potency is on record?
A: inconclusive: 31.6 µM [inhibitor, single point]

Q: COc1ccc(CNN2CCCCC2C(=O)Nc2ccc(OC)c(OCC(C)C)c2)cc1OC (stereo unspecified) was tested. Which Potency did it give?
A: inconclusive: 12.6 µM [inhibitor, partial curve, poor fit]

Q: For Cc1cc(S(=O)(=O)NCC(c2ccco2)S(=O)(=O)c2cccs2)ccc1F (stereo unspecified), which Potency is on record?
A: inconclusive: 25.1 µM [inhibitor, partial curve, poor fit]

Q: How did the Potency turn out when Cc1ccc(CCNC(=O)c2c3c(nc4ccccc24)C(=O)N(C2CCCCC2)C3)cc1 was run?
A: inconclusive: 31.6 µM [inhibitor, single point]

Q: For COCCc1noc(C2Cc3ccccc3N2C(=O)NCC(C)C)n1 (stereo unspecified), which Potency is on record?
A: inconclusive: 20 µM [inhibitor, single point]

Q: For O=C(NCCc1ccccc1)c1nn(-c2ccc(F)cc2)nc1CO, which Potency is on record?
A: inconclusive: 14.1 µM [inhibitor, partial curve, poor fit]

Q: For O=C(c1cc(=O)[nH]c(=O)[nH]1)N1CCc2[nH]nc(-c3ccc(F)c(F)c3)c2C1, which Potency is on record?
A: inconclusive: 3.55 µM [inhibitor, partial curve, poor fit]

Q: How did the “activity change, negative = inhibition” value turn out when COc1cn(CC(=O)Nc2ccc(C(N)=O)cc2)c(CSc2ccccc2)cc1=O was run?
A: inactive: 13.6%

Q: For Cc1ccc(C(=O)NCC(=O)OCc2cc(=O)oc3cc(O)ccc23)cc1C, which Potency is on record?
A: inconclusive: 28.2 µM [inhibitor, partial curve, poor fit]

Q: How did the Potency turn out when CCc1ccc(S(=O)(=O)c2cn(Cc3ccccc3F)c3cc(OC)c(OC)cc3c2=O)cc1 was run?
A: inconclusive: 28.2 µM [inhibitor, partial curve, poor fit]

Q: With COc1ccc(OC)c(NC(=O)Cn2ccn3nc(-c4ccccc4)c(CO)c3c2=O)c1 as the molecule, how does the Potency read?
A: inconclusive: 22.4 µM [inhibitor, single point]

Q: With Cc1ccc(C)c(NC(=O)Cc2c[nH]c3ccccc23)c1 as the molecule, how does the “activity change, negative = inhibition” value read?
A: inactive: 9.43%

Q: FC(F)(F)c1cccc(-c2cc(-c3cccnc3)c3cncn3c2)c1 was tested. Which Potency did it give?
A: inconclusive: 15.8 µM [inhibitor, partial curve, poor fit]

Q: COc1cccc(C(=O)N[C@@H]2CN(c3ccccn3)C[C@H]2CN(C)C)c1 was tested. Which Potency did it give?
A: active: 28.2 µM

Q: With CN1c2cc(C(=O)N3CCN(c4ccc(F)cc4)CC3)ccc2C(=O)N2CCCCCC21 (stereo unspecified) as the molecule, how does the Potency read?
A: inconclusive: 28.2 µM [inhibitor, partial curve, poor fit]

Q: With O=C1NCC2(CCCN(C(=O)CCc3ccc(=O)[nH]n3)C2)O1 (stereo unspecified) as the molecule, how does the “activity change, negative = inhibition” value read?
A: inactive: 7.41%

Q: With O=C(Nc1nc2ccccc2[nH]1)c1ccc(Cl)c(S(=O)(=O)N2CCc3ccccc32)c1 as the molecule, how does the Potency read?
A: inconclusive: 39.8 µM [inhibitor, single point]

Q: Cc1cc(C(=O)N[C@H]2[C@H](O)[C@H](O)C[C@@H]2c2ccc(N3CCOCC3)nc2)nn1C was tested. Which Potency did it give?
A: active: 31.6 µM
